The whole screen tested about 320,000 compounds, of which about 200 (0.062%) were called active. The shares of active, inactive and inconclusive entries below differ from those in the screen. The call rests on the fitted dose curve; in most records, active means well fitted activation curve with a large enough effect; inconclusive means small, poorly fitted or top-dose-only effect; inactive means no such curve, though single readings can be large or run the other way. Potencies of inconclusive entries are left out as doubtful fits.
test: qHTS assay for re-activators of p53 using a Luc reporter; conditions: H1299 p53-A138V BP100-luciferase reporter, luminescence, 24 h; series mostly up to 92.2 µM; activity change, positive = activation: at the top concentration; further: nearly all actives have a fitted effect of over 45% in size; on activity change, positive = activation: % of control where 0% means no effect
Summary of the method: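 H1299 (p53-null), stable ts p53-A138V + BP100-Luc; 1000 cells/well, Opti-MEM/10% FBS; cpd 4 pt, 1:5; 24 h, 37 deg C, 5% CO2; detection reagent 10 min RT; luminescence.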
Potency means the concentration at half of the fitted maximal effect; tags describe the fitted curve by direction and shape.

| SMILES | Potency | activity change, positive = activation |
| --- | --- | --- |
| Cc1ccc(C)n1-c1ccc(C(=O)NCC2CCCO2)cc1 (stereo unspecified) | inconclusive [activator, partial curve, poor fit] |  |
| O=C(N/N=C/c1cc(Br)ccc1O)c1cccc(N2CCCC2=O)c1 | inconclusive [activator, partial curve, poor fit] |  |
| O=C(N=Nc1c(O)n(C2OC(=O)c3ccccc32)c2ccccc12)c1ccc(O)cc1 (stereo unspecified) | inconclusive [activator, single point] |  |
| CN(C)CCCN(C(=O)c1ccc(S(=O)(=O)N2CCc3ccccc32)cc1)c1nc2ccc(Cl)cc2s1 | inconclusive [activator, partial curve, poor fit] |  |
| COc1ccc(C(=O)C(OC(=O)c2ccccc2Cl)c2ccccc2)cc1 (stereo unspecified) | inconclusive [activator, full curve, poor fit] |  |
| CCCCN(CC)S(=O)(=O)c1ccc(C(=O)Nc2nnc(-c3cccs3)o2)cc1 |  | inactive: -4.53% |
| Cc1ccccc1C(CC(=O)c1cccs1)C(C#N)C#N (stereo unspecified) | inconclusive [activator, single point] |  |
| Cc1ccc(SCCC(=O)N/N=C/c2ccccc2O)cc1 | inconclusive [activator, single point] |  |
| COc1cccc(-c2c(C(=O)N/N=C/c3sccc3C)nnn2-c2nonc2N)c1 | inconclusive [activator, single point] |  |
| CCn1nnc2c(=O)oc3ccccc3c21 |  | inactive: 1.72% |
| CC(C)C(=O)Nc1ccc2c(c1)nc1n2CCSC1 | inconclusive [activator, full curve, poor fit] |  |
| CCOC(=O)c1c(C)n(-c2ccc(C)cc2)c2ccc(OCC(O)CN3CCN(C)CC3)cc12 (stereo unspecified) |  | inactive: 14.4% |
| COc1cc2c(cc1OC)C(c1ccc(OC)c(OC)c1OC)CC(=O)N2 (stereo unspecified) | inconclusive [activator, single point] |  |
| C/C(=N\NC(=O)c1nnn(-c2nonc2N)c1CN(C)c1ccccc1)c1ccccc1O | inconclusive [activator, partial curve, poor fit] |  |
| Cc1ccccc1Cn1nnc(-c2ccc3c(c2)OCO3)n1 | inconclusive [activator, partial curve, poor fit] |  |
| O=C(c1ccc(S(=O)(=O)N2CCCCC2)cc1)N(c1ccccn1)C1CCCCC1 | inconclusive [activator, single point] |  |
| CCOCCCNC(=O)c1ccc2c(c1)ncn2C1CCCC1 | inconclusive [activator, partial curve, poor fit] |  |
| COc1ccc(-c2cc([C@H]3[C@@H]4C=CCC[C@@]4(C)C(=O)N3Cc3ccccc3)ccc2F)cc1 |  | inactive: 0.799% |
| O=C(Cc1cccs1)Nc1ccc(N2CCOCC2)cc1 | inconclusive [activator, partial curve, poor fit] |  |
| O=C(COc1ccc(Cl)cc1Cl)NC(=O)NC1CCCC1 | inconclusive [activator, full curve, poor fit] |  |
| CCn1c(NCc2cc(OC)ccc2OC)nc2ccccc21 | inconclusive [activator, single point] |  |
| O=C(Nc1nnc(S(=O)(=O)N2CCOCC2)s1)c1cccc(Br)c1 | inconclusive [activator, partial curve, poor fit] |  |

| SMILES | Potency | activity change, positive = activation |
| --- | --- | --- |
| O=C(N/N=C/c1cccs1)c1ccc(-n2cccc2)cc1 |  | inactive: 2.39% |
| CCOc1ccc2nc(NC(=O)Nc3cccs3)sc2c1 | inconclusive [activator, partial curve, poor fit] |  |
| COc1ccccc1NS(=O)(=O)c1cccc(NC(=O)CCNC(=O)c2ccccc2OC)c1 | inconclusive [activator, single point] |  |
| CCOc1ncccc1C(=O)Nc1ccc2c(c1)OCCO2 | inconclusive [activator, single point] |  |
| CN(C)c1cccc(C(=O)OCC(=O)Nc2nccs2)c1 | inconclusive [activator, single point] |  |
| c1ccc(N=P(c2nc3ccccc3o2)(N2CCOCC2)N2CCOCC2)cc1 | inconclusive [activator, partial curve, poor fit] |  |
| CCN1C(=O)/C(=C\C=C2/C=CC=CN2CC)SC1=S | inconclusive [activator, partial curve, poor fit] |  |
| Cn1cccc1/C=C1\CCC/C(=C\c2cccn2C)C1=O | inconclusive [activator, partial curve] |  |
| CCCCCC(=O)Nc1ccc(N2CCN(CC)CC2)c(Cl)c1 | inconclusive [activator, single point] |  |
| COC(=O)c1sc(NC(=O)c2ccc([N+](=O)[O-])o2)c(C#N)c1C | inconclusive [activator, full curve, poor fit] |  |
| CC(=O)c1ccc(Sc2ccc(C(C)=O)cc2)cc1 | inconclusive [activator, partial curve, poor fit] |  |
| COc1ccc(-c2cccc(NC(=O)c3ccc4c(c3)OCO4)c2)nn1 |  | inactive: -9.89% |
| COCCNC(=O)c1cc2c(s1)-c1ccc(Cl)cc1SC2 | inconclusive [activator, partial curve, poor fit] |  |
| O=C(CSc1n[nH]c(-c2ccccn2)n1)Nc1ccccc1 |  | inactive: -6.23% |
| COCCn1c(C)cc(C(=O)CSc2nncn2-c2ccccc2)c1C | inconclusive [activator, single point] |  |
| Oc1c(Cl)cc(Cl)c2c1NCCC2 |  | inactive: -2.7% |
| Cc1ccc(NC(=O)C(c2ccccc2)N2CCN(CC(=O)N3CCOCC3)CC2)cc1 (stereo unspecified) | inconclusive [activator, partial curve, poor fit] |  |
| Cc1noc(C)c1C(=O)NCCc1ccc(S(N)(=O)=O)cc1 | inconclusive [activator, single point] |  |
| C/C(=N\OCC(=O)NC12CC3CC(CC(C3)C1)C2)c1cc2ccccc2o1 | inconclusive [activator, partial curve, poor fit] |  |
| Cc1ccc(S(=O)(=O)NCC(=O)N2CCc3ccccc3C2)cc1 | inconclusive [activator, single point] |  |
| O=c1oc2ccccc2cc1-c1ccc(O)cc1O |  | inactive: 15.2% |
| COCCCN1C(=O)c2ccc(C(=O)NCCc3ccccc3)cc2C1=O | inconclusive [activator, partial curve, poor fit] |  |

| SMILES | Potency | activity change, positive = activation |
| --- | --- | --- |
| Cc1nc(SCC(=O)Nc2nc3ccccc3s2)n[nH]1 | inconclusive [activator, single point] |  |
| Cc1ccc(C(=O)Nc2nc(C)c(C(=O)N(C)C)s2)o1 | inconclusive [activator, partial curve, poor fit] |  |
| O=C(Cc1ccc(Br)cc1)c1ccc(O)cc1O | inconclusive [activator, partial curve, poor fit] |  |
| CCOc1ccc(N=c2scc(-c3ccc(OC)cc3)n2CCO)cc1 | inconclusive [activator, partial curve, poor fit] |  |
| O=C1Nc2ccccc2C12Nc1ccccc1S2 (stereo unspecified) | inconclusive [activator, partial curve, poor fit] |  |
| COc1ccc(/C(C)=N/Nc2nc3ccccc3nc2C)cc1 | inconclusive [activator, partial curve, poor fit] |  |
| COc1ccc(NC(=O)c2ccc3nc[nH]c3c2)cc1 | inconclusive [activator, full curve, poor fit] |  |
| CC(=O)N1N=C2c3ccccc3CCC2C1c1ccc(F)cc1 (stereo unspecified) |  | inactive: 0.753% |
| O=C(NCCCNC(=O)c1cnccn1)c1ccc(Cl)cc1 |  | inactive: 3.06% |
| COC(=O)c1ccc2c(c1)NC1=C(C(=O)CC(C)(C)C1)C(c1ccncc1)N2 (stereo unspecified) | inconclusive [activator, partial curve] |  |
| CC(C)N1CC(C(=O)Nc2ccc(C#N)cc2)CC1=O (stereo unspecified) | inconclusive [activator, single point] |  |
| CC1CCCC(C)N1C(=O)COC(=O)c1ccccc1O (stereo unspecified) | inconclusive [activator, full curve, poor fit] |  |
| CCC(=O)Nc1ccccc1-c1nnn(CC(=O)N2c3ccccc3CC2C)n1 (stereo unspecified) |  | inactive: 0.74% |
| Cc1[nH]c2ccccc2c1C(=O)C(=O)N1CCCc2ccccc21 | inconclusive [activator, single point] |  |
| O=[N+]([O-])c1ccc(N2CCc3ccccc3C2)nc1 |  | inactive: -68.4% |
| O=C(Cn1cnc2scc(-c3ccc(F)cc3)c2c1=O)N1CCOCC1 |  | inactive: -1.24% |
| COC(=O)c1ccc(N/C=C\C(=O)c2ccc3c(c2)OCO3)cc1 |  | inactive: 3.15% |
| Cc1ccc(SCc2nn(C)c(Cl)c2C=O)cc1 | inconclusive [activator, partial curve, poor fit] |  |
| O=C(N/N=C/c1ccc(OC(F)F)cc1)c1ccc(CSc2nc3ccccc3[nH]2)cc1 |  | inactive: -0.738% |
| COc1cccc(/C=N/NC(=O)C[n+]2ccccc2)c1O | inconclusive [activator, partial curve, poor fit] |  |
| O=C(Nc1ccc(SC(F)F)cc1)C1=COCCO1 | inconclusive [activator, full curve, poor fit] |  |
| COc1ccc(CCN=c2c([N+](=O)[O-])nn(-c3cccc(C)c3)n2O)cc1OC | inconclusive [activator, full curve, poor fit] |  |
